# Data published in the BET-seq Pho4 binding data (Le et al. 2018).
# The list shows a part of the results. The energies were worked out here from pooled read counts, against the library average; single values are noisy.
# Molecular target: T1, Pho4 (S. cerevisiae) (UniProt P07270)
# T1 sequence: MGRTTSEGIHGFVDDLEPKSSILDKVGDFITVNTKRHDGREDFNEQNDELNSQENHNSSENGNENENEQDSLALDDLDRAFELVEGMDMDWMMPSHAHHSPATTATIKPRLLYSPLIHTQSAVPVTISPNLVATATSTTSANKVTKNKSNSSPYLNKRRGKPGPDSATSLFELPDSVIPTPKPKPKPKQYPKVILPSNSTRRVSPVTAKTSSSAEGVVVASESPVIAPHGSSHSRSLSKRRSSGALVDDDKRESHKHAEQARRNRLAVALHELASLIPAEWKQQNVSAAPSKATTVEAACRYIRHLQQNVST
# Experiment: relative binding free energy (BET-seq); higher = weaker binding
# Details: reference: library average
row,Sequence,relative binding free energy [kJ/mol]
1,TGTGCCACGTGGTGCA,-0.544
2,TAATTCACGTGTTTAA,1
3,TCGTTCACGTGTTCGT,0.92
4,GTAGGCACGTGGTTCA,-0.669
5,CGTAGCACGTGTTATT,-0.0837
6,TTCATCACGTGTAGCG,1.88
7,TATAACACGTGAGTTG,0.628
8,GTGCACACGTGTGTCG,1
9,GTTGCCACGTGAGGGC,0
10,GTAGTCACGTGATACG,1.09
11,TCGATCACGTGAAGTG,1.59
12,CAGTGCACGTGATGTG,0.126
13,GGGCTCACGTGGTGAT,0.795
14,ATTGTCACGTGATTGC,0.586
15,GGGTGCACGTGATATA,-0.126
16,TGTTTCACGTGTCAAT,1.46
17,TTTGGCACGTGGTGCC,-1.17
18,TGATTCACGTGCTGAT,0.837
19,ACTGGCACGTGGTTGC,-0.628
20,AGAATCACGTGGAAGT,1
21,AGTTGCACGTGCGGGA,0.126
22,TGAAGCACGTGGGTCA,-0.837
23,CTGGGCACGTGATGAT,0.0418
24,AATGTCACGTGAATTT,0.628
25,ATGTACACGTGTGTGC,1.26

row,Sequence,relative binding free energy [kJ/mol]
1,GTAGGCACGTGTGACT,0.167
2,TATGACACGTGTTTGA,-0.251
3,AACTACACGTGTGGGT,0.586
4,GGTCTCACGTGTGTTG,0.711
5,AAGTTCACGTGGAAGG,1.42
6,ATTAGCACGTGTGTTA,-0.126
7,GGGCGCACGTGGTGCT,-0.879
8,GTATACACGTGAGAGT,1.72
9,CCGGGCACGTGTGATT,0.418
10,GGGTACACGTGTTGAT,0.46
11,GATTTCACGTGTTGTT,1.46
12,GCTTGCACGTGGGAAG,-0.0418
13,TTTGTCACGTGGTGTA,0.209
14,ATTATCACGTGAGGTT,1.51
15,GGTGTCACGTGCATGA,0.46
16,TGTGACACGTGATCTG,0.209
17,CTGTACACGTGTAGGT,0.335
18,AAGTTCACGTGGTTTT,1.42
19,AGGGACACGTGGCTGA,0.293
20,GGAGTCACGTGCGGTT,0.335
21,AGTTCCACGTGTGTGT,-0.0837
22,TGGGCCACGTGGAGGG,-0.544
23,TGTTGCACGTGATTCT,-0.377
24,TGTATCACGTGGCTTA,0.209
25,TGTAGCACGTGTTGAC,-0.544

row,Sequence,relative binding free energy [kJ/mol]
1,TGGGGCACGTGAGCTT,0.0837
2,GGACGCACGTGAGGGT,0.335
3,GTCTGCACGTGGATGA,0.753
4,TGTTTCACGTGATTTA,1.17
5,TGTGGCACGTGGTATC,-0.837
6,GAGTTCACGTGAAGTA,2.18
7,GTTGACACGTGTTTAG,0.335
8,ATTCGCACGTGTTTAG,-0.293
9,GATACCACGTGGGCGG,-0.251
10,TTGGCCACGTGTGCTT,0
11,TTGATCACGTGCTGCG,0.837
12,GGAGGCACGTGCCGGG,-0.335
13,TGTTGCACGTGTTCAG,0.0418
14,CTGTTCACGTGGTGAA,0.544
15,TTTCTCACGTGCTAGG,0.879
16,ACGTTCACGTGAGGGC,1.63
17,ATCGACACGTGGGGGC,-0.711
18,GGCTGCACGTGCGTTG,0.0418
19,ACGGGCACGTGGGGGT,-1.05
20,TTTCTCACGTGTTTGC,1.34
21,GGTAACACGTGCGTTT,0.0837
22,AGCTTCACGTGTGCGT,0.46
23,ATGATCACGTGACGTT,1
24,CAATTCACGTGCGGTT,1.55
25,GGACACACGTGTTGTA,0.795

row,Sequence,relative binding free energy [kJ/mol]
1,CCTAGCACGTGTGTGT,0
2,TAGTTCACGTGGATAT,1
3,TGTTCCACGTGGTAGT,-0.335
4,ATGCACACGTGTAGTT,0.0418
5,AGCTACACGTGGTGTT,-0.209
6,TAGTACACGTGAGGCT,0.795
7,CTTATCACGTGTAAGT,0.586
8,ATTTACACGTGGTATC,0.418
9,GTTCGCACGTGTTGGG,0.418
10,CTTAGCACGTGGTGAT,-0.753
11,GAGGGCACGTGGGTGG,-0.795
12,CGTGTCACGTGATTCT,0.879
13,ATTTGCACGTGAAAGA,1.3
14,TTTGCCACGTGGTGCT,-0.586
15,TTATTCACGTGAAAAG,1.34
16,AAGTGCACGTGTCAAG,0.293
17,ATGTTCACGTGCAAGT,1
18,GATATCACGTGTGGGA,0.837
19,TGCTACACGTGGATGG,0.544
20,TTTTGCACGTGTGGAC,0.669
21,GAAGTCACGTGAAGGG,1.3
22,AACGGCACGTGTTGGT,-0.335
23,TTTGTCACGTGCGTTA,-0.0837
24,AGCGGCACGTGAGTTG,0.377
25,CTTGACACGTGATTTG,0.293

row,Sequence,relative binding free energy [kJ/mol]
1,GTGTACACGTGGGTCT,-0.335
2,CTGGGCACGTGTGGCA,-0.0418
3,TAAGTCACGTGCGGTT,0
4,TAGTGCACGTGTGGGA,0.209
5,TTAGGCACGTGGATGG,-0.669
6,AAGATCACGTGTTGGC,1.21
7,TGTGACACGTGAAACG,1.09
8,AGGGTCACGTGAAGGT,1.26
9,CTGTACACGTGTTGGA,0.209
10,TAGATCACGTGGGAAT,-0.335
11,ATTTACACGTGCTGGA,0.92
12,GGTGCCACGTGTTGTG,0.0418
13,TTATTCACGTGAGTGC,1.21
14,GGTTTCACGTGGTTAT,1.38
15,GTTCCCACGTGTGTGT,0.0418
16,TTGGTCACGTGTCCTT,0.795
17,GGTTCCACGTGTAATT,1.26
18,CATTGCACGTGTTGGT,-0.0837
19,GGCTCCACGTGGTTTG,0.879
20,TGACGCACGTGTAGTT,-0.126
21,CTGTTCACGTGGAGAG,1.17
22,ATTTGCACGTGCTATT,-0.251
23,TGAGTCACGTGAGGAG,1.51
24,AAATACACGTGGGGGT,-0.0837
25,TTGATCACGTGGTGCA,-0.0418

row,Sequence,relative binding free energy [kJ/mol]
1,GGCGCCACGTGGGCGG,-1.05
2,CGTGTCACGTGTGAGG,0.669
3,CATTTCACGTGTGTTG,0.879
4,TCTTTCACGTGGATTA,0.669
5,CGATGCACGTGTGGAT,0.251
6,GGGTCCACGTGGAGTT,0.46
7,TATTTCACGTGATTGA,0.753
8,TGTGTCACGTGGAGGC,-0.0418
9,TTGGTCACGTGGTCAA,-0.167
10,TGGGACACGTGATGAG,0.502
11,ATGTCCACGTGGAAGG,0.502
12,TGTGGCACGTGGTAGG,-0.251
13,TAGCGCACGTGTTAGG,-0.251
14,TCTAGCACGTGTCGGT,-0.335
15,AGCTTCACGTGTACGG,1.46
16,GTTGGCACGTGTATGT,0
17,AGGGTCACGTGGTGCG,-0.167
18,TAGCACACGTGGTCGG,0.0418
19,ACGGGCACGTGAGTGT,0.669
20,CGTTACACGTGGTGTC,0.335
21,GGCATCACGTGGTGCG,1.42
